Test results reported in PubChem BioAssay AID875 (National Center for Advancing Translational Sciences (NCATS), 2007).
Values joined by “and” are separate entries in the source; they are usually repeats but may differ in a detail not shown here. Equal values may be shown once. About 35 (0.05%) of roughly 75,000 compounds were called active. Calls follow the shape of the dose curve; as a rule, active = well fitted inhibition curve with a large enough effect; inconclusive = small, poorly fitted or top-dose-only effect; inactive = no such curve, though single readings can be large or run the other way. Only a part is listed here, and it is no random draw. The source holds several records for some structures; these can differ, active in one and inactive in another.

Biological target: Breast cancer type 1 susceptibility protein (Homo sapiens) (UniProt P38398)
Sequence of UniProt P38398 (P38398 whole entry, looked up): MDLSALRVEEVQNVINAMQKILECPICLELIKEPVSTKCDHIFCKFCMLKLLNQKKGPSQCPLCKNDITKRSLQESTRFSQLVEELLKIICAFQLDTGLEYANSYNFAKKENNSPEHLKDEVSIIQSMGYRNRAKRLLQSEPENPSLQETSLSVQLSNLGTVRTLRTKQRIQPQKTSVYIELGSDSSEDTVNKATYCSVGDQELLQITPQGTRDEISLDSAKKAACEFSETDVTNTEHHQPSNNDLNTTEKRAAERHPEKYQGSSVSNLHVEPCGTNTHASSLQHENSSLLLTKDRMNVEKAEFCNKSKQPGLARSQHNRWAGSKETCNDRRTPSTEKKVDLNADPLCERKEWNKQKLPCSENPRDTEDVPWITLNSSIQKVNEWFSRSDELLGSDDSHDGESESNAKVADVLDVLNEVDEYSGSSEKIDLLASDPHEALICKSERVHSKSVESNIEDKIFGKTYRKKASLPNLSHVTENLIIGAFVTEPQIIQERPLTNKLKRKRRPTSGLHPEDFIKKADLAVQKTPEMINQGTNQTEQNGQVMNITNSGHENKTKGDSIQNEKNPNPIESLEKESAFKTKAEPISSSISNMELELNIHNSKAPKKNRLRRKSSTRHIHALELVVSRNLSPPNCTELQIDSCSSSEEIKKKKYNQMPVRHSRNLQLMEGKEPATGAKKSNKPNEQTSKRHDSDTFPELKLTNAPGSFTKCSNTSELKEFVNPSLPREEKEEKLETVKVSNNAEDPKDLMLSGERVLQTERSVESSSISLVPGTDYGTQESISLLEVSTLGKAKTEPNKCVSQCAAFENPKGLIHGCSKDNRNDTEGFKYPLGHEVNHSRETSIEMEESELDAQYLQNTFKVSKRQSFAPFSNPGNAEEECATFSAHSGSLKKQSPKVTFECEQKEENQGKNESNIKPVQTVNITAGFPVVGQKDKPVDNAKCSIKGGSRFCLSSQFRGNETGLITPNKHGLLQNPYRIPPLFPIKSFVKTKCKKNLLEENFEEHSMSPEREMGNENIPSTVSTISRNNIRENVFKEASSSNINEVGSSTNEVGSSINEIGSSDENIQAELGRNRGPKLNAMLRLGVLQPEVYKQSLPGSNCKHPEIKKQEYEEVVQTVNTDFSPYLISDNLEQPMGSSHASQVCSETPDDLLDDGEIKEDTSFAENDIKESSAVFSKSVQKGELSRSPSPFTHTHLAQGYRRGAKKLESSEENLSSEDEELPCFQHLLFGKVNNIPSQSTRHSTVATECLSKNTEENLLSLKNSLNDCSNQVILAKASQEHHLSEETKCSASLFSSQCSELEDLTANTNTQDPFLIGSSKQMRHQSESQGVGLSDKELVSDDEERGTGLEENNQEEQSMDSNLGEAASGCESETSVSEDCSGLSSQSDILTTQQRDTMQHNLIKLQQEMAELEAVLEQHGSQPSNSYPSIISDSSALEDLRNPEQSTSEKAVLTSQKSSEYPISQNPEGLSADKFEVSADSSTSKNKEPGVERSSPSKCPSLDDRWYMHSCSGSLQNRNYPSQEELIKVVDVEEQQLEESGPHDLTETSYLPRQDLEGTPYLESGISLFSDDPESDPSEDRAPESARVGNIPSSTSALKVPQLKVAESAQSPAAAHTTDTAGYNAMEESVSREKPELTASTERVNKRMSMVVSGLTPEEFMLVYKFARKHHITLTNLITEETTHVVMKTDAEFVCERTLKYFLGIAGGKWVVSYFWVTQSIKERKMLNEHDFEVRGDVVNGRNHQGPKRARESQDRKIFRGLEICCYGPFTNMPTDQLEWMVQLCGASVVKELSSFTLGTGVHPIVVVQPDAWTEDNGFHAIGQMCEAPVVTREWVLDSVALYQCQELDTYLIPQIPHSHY
Test: qHTS Assay for Inhibitors of BRCT-Phosphoprotein Interaction (Green Fluorophore);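 as to activity change, negative = inhibition: plate controls were peptide without protein for full effect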
Conditions: BRCA1 BRCT-phosphopeptide binding, green fluorescence polarization; series mostly up to 76.9 µM; activity change, negative = inhibition: at the top concentration
Method: NIH Molecular Libraries Screening Centers Network [MLSCN]
NIH Chemical Genomics Center [NCGC]
PI Name: Natarajan, Amarnath; University of Texas
A complex of BRCT (C-terminal portion of BRCA1, MW ~35 kDa, His-tagged) and fluorescently labeled pBACH1 phosphorylated 10 aa peptide fragment of BACH1, a helicase implicated in DNA repair, is incubated with library members. Inhibitors of BRCT-pBACH1 binding are detected by a decrease in the fluorescence polarization (FP) of the fluorophore. In order to minimize the effect of fluorescence artifacts and to increase the overall robustness of the screen, the compound library members were incubated in separate reactions with fluorescein labeled probe-protein complexes. Protein and labeled probes were supplied by Dr. Amarnath Natarajan, Department of Pharmacology and Toxicology, University of Texas Medical Branch Galveston, TX.
Assay Buffer: 16mM Na2HPO4, 4 mM NaH2PO4, 150 mM NaCl, 1 mM EDTA, 1 mM DTT, 0.02% NaN3, and 0.01% Tween 20 at pH 7.3.
100 nM labeled decapeptide/250 nM protein in columns 1, 2, 5 - 48. Titration of unlabeled decapeptide control (from 10 mM, then 1:2 dilution in duplicate) pin-transferred to column 2, rows 1 to 16. Column 1 is neutral.
Three uL of reagents were dispensed to 1536-well Greiner black solid-bottom plates. Compounds and controls (23 nL) were transferred
via Kalypsys PinTool. The plates were incubated for 12 min at room temperature, and then read on ViewLux (Perkin-Elmer) High throughput CCD imager using FITC for the fluorescein-labeled decapeptide probe polarization filter sets. During dispense, reagent bottles were kept submerged into 4 deg C water bath and all liquid lines were covered with aluminum foil to minimize probe and protein degradation. All screening operations were performed on a Kalypsys robotic system (Kalypsys, Inc., San Diego, CA) containing one RX-130 and two RX-90 anthropomorphic robotic arms. The timing and order of assay plates passing through the screening system were adjusted such that each compound library plate was assayed against the fluorescein- and rhodamine-labeled assay systems at immediately adjacent time points.
Potency is read from the fitted curve at half-maximal effect.

Structure (SMILES)	activity change, negative = inhibition	Potency
N=C(N)c1ccc(OCCCCCOc2ccc(C(=N)N)cc2)cc1 (tested in a mixture with another compound)	inactive: 22.5%	
CC[C@@]1(O)C(=O)OCc2c1cc1n(c2=O)Cc2cc3c(CN(C)C)c(O)ccc3nc2-1	inactive: 1.02% [at 3.08 µM]	
CCN(C(C)=O)c1nnc(CSc2nc3ccccc3s2)s1	inactive: 30.5%	
Cc1nc(N=Nc2cc(S(=O)(=O)O)c3cc([N+](=O)[O-])cc(S(=O)(=O)O)c3c2)c(COP(=O)(O)O)c(C=O)c1O	inactive: -5.92%	
N#Cc1sc2nc3c(c(-c4ccco4)c2c1N)CCCC3	inactive: 35.1%	
O=c1[nH]c2cc3c(cc2cc1C(c1nnnn1C1CCCCC1)N1CCSCC1)OCCO3 (stereo unspecified)	inactive: 37.5%	
CCOc1ccc2noc3c2c1C(=O)c1ccccc1-3		active: 3.98 µM
COCCn1c(=O)c(-c2ccc(Cl)cc2)nc2cnc(N(C)C)nc21	inactive: 36.5%	
CN1CCc2nc(NC(=O)c3cccc(S(=O)(=O)N4CCc5ccccc54)c3)sc2C1	inactive: 54.4%	
Cn1c(=O)cc(N2CCc3ccccc32)[nH]c1=O	inactive: 118%	
N#CC1=C(N)SC(N)=C(C#N)C1CCc1ccccc1	inactive: 80.2%	
CC(C)(C)NC(=O)CSc1nc(O)cc(=O)n1-c1ccccc1F	inactive: 52.5%	
COc1cc(/C=C(\C#N)C(=O)c2ccc(O)c(O)c2)cc(I)c1O	inactive: 93.4%	
O=C1Nc2ccc(I)cc2/C1=C/c1cc(Br)c(O)c(Br)c1	inactive: 40.6%	
COc1ccc(Oc2ncc3nc(C)c(=O)n(Cc4ccc(F)cc4)c3n2)cc1	inactive: 49.4%	
CN(C)c1ncc2nc(CCc3ccccc3)c(=O)n(Cc3ccc(F)cc3)c2n1	inactive: 35.1%	
COc1cccc(Nc2ncc3nc(CCc4ccccc4)c(=O)n(CCC#N)c3n2)c1	inactive: 34.2%	
O=c1oc2c3c4c(cc2cc1-c1nc2ccccc2[nH]1)CCCN4CCC3	inactive: 40.8%	
O=C1OC2(c3ccc(O)cc3Oc3cc(O)ccc32)c2c1c(-c1ccccc1)c(-c1ccccc1)c(-c1ccccc1)c2-c1ccccc1	inactive: 34.5% [at 15.4 µM]	
CCNc1ncc2nc(-c3ccc(OC)cc3)c(=O)n(Cc3cccc(OC)c3)c2n1	inactive: 80.7%	
O=c1c(-c2ccc(F)cc2)nc2cnc(Nc3ccccc3)nc2n1Cc1cccs1	inactive: 33%	
Cc1cccc(S(=O)(=O)C(C#N)c2nc3ccccc3nc2N2CC(C)OC(C)C2)c1 (stereo unspecified)	inactive: 51.3%	
COCCn1c(=O)c(-c2cccs2)nc2cnc(Nc3ccccc3)nc21	inactive: 60.3%	
CC1=CC(=C(C#N)c2nc3ccccc3s2)C=C(C)N1Cc1ccco1	inactive: 51.9%	

Structure (SMILES)	activity change, negative = inhibition	Potency
CCOc1ccccc1C1C(C#N)=C(N)SC(N)=C1C#N	inactive: 108%	
COc1cccc(Cn2c(=O)c(-c3cccc(C#N)c3)nc3cnc(Nc4ccccc4)nc32)c1	inactive: 18.4%	
COc1ccc2noc3c2c1C(=O)c1ccccc1-3		active: 3.16 µM
Cc1ccc(Cn2nc(C)c(NC(=O)c3cc(-c4ccco4)on3)c2C)cc1	inactive: 33.4%	
CN1CCc2c(sc3c2C(=O)NC(c2cccc(OC(=O)c4cccs4)c2)N3)C1 (stereo unspecified)	inactive: 31.7%	
N#CC1=C(N)OC2=C(CCC/C2=C/c2ccoc2)C1c1ccoc1 (stereo unspecified)	inactive: 32%	
CCNc1ncc2nc(-c3ccc(Cl)cc3)c(=O)n(-c3ccccc3)c2n1	inactive: 99.2%	
CSc1ccc(C2C(C#N)=C(N)Oc3c2ccc(=O)c2c(C)oc(C)c32)cc1 (stereo unspecified)	inactive: 36.6%	
Cc1nn(Cc2ccc(F)cc2)c(C)c1NC(=O)c1cc(-c2ccco2)on1	inactive: 30.6%	
CCOc1ccc(C2C(C#N)=C(N)SC(N)=C2C#N)cc1OCC	inactive: 176%	
COc1cc2c(C=O)c3c4c(cc(OC)c(OC)c4c2cc1OC)CCN3C	inactive: 68.4%	
N#CC(C(=O)NCc1ccccc1)c1nc2ccccc2nc1N1CCCC1 (stereo unspecified)	inactive: -106%	
COC(=O)[C@@]1(Cc2ccc(OC)cc2)[C@H]2c3cc(C(=O)N(C)C)n(Cc4nc5ccccc5[nH]4)c3C[C@H]2CN1C(=O)c1ccccc1	inactive: 32.9%	
Cc1nnc2sc(-c3ccc(NC(=O)c4cccnc4)cc3)nn12	inactive: 63.8%	
CCNc1ncc2nc(CCc3ccccc3)c(=O)n(-c3ccccc3)c2n1	inactive: 47.5%	
O=C(O)C1=CC(=C(c2ccc(O)c(C(=O)O)c2)c2ccc(O)c(C(=O)O)c2)C=CC1=O		active: 12.6 µM and active: 15.8 µM
CC(=O)c1sc2nc(-c3cccs3)cc(C(F)(F)F)c2c1N	inactive: 41.7%	
CCNc1ncc2nc(-c3cccs3)c(=O)n(-c3ccc(OC)cc3)c2n1	inactive: 78.3%	
CN(C)c1ncc2nc(CCc3ccccc3)c(=O)n(-c3ccccc3)c2n1	inactive: 35.4%	
CC1(C)c2ccccc2N2CC(=O)N(CC(N)=O)C21C (stereo unspecified)	inactive: 63.1%	
CCc1ccc(C2C(C#N)=C(N)SC(N)=C2C#N)cc1	inactive: 120%	
CCNc1ncc2nc(-c3ccc(F)cc3)c(=O)n(CCC#N)c2n1	inactive: 49.9%	
COc1ccc(C2C(C(C)=O)=C(C)N=c3s/c(=C\c4cc(C)n(C)c4C)c(=O)n32)c(OC)c1 (stereo unspecified)	inactive: 57%	
COc1ccc2c(c1)S/C(=C\C(=O)c1ccncc1)N2C	inactive: 59.2%	

Structure (SMILES)	activity change, negative = inhibition	Potency
CN(C)c1ccc(/C=C/c2cc[n+]([O-])cc2)cc1	inactive: 53.3%	
Cc1ccccc1N1C(=O)c2cccc3c(N(C)CCO)ccc(c23)C1=O	inactive: 32.3%	
N#C/C(C(=O)c1ccccc1)=C1/SC=C(N)N1c1ccccc1	inactive: 83%	
CN(C)c1ccc(N/C=C/C(=O)c2ccc(F)cc2)cc1	inactive: 33.6%	
CCNc1ncc2nc(-c3cccs3)c(=O)n(-c3ccccc3)c2n1	inactive: 30.6%	
CCOC(=O)c1ccc2c(c1)nc(SC/C(O)=C(\C#N)c1nc3ccccc3[nH]1)n2CC	inactive: 54.6%	
Cc1ccc(N=c2oc3cc(O)ccc3cc2C(N)=O)cc1	inactive: 32.7%	
CCN1C(=O)c2cccc3c(NC(=O)c4ccc5c(c4)OCCO5)ccc1c23	inactive: 47.6%	
CCOc1cc(C2C(C#N)=C(N)SC(N)=C2C#N)ccc1OCCN1CCOCC1	inactive: 54.1%	
COc1cccc(Nc2ncc3nc(-c4ccc(Cl)cc4)c(=O)n(CCC#N)c3n2)c1	inactive: 37.5%	
COc1cc(/C=C/C(=O)CC(=O)/C=C/c2ccc(O)c(OC)c2)ccc1O		inactive
CCOc1ccc(C2C(C#N)=C(N)SC(N)=C2C#N)c(OCC)c1	inactive: 131%	
Nc1ccc2c3c(cccc13)C(=O)NC2=O		active: 12.6 µM
O=S(=O)(Nc1nc2ccccc2nc1Nc1ccc2c(c1)OCCO2)c1cccs1	inactive: 40.4%	
CCNc1nc(N)c(C(=O)c2ccc(Cl)s2)s1	inactive: 48.2%	
CC(=O)c1c(O)c(C)c(O)c2c1OC1=CC(=O)C(C(C)=O)C(=O)C12C (stereo unspecified)	inactive: 58.7%	
Cc1nnc2sc(-c3ccc(NC(=O)c4ccc(-c5ccc(Cl)cc5Cl)o4)cc3)nn12	inactive: 37.1%	
COc1ccc(-c2nc3cnc(Nc4ccccc4)nc3n(CCC#N)c2=O)cc1	inactive: 123%	
C=CCN(C(=O)CSc1nc2[nH]ncc2c(=O)n1-c1ccccc1OC)c1ccccc1	inactive: 33%	
O=C(O)CN(CC(=O)O)Cc1cc2c(-c3ccccc3C(=O)O)c3cc(CN(CC(=O)O)CC(=O)O)c(=O)cc-3oc2cc1O		active: 0.126 µM
CC1CCCCN1Cc1nc2c(c(=O)n(C)c(=O)n2C)n1Cc1c(F)cccc1Cl (stereo unspecified)		active: 0.631 µM
N#CC1=C(N)SC(N)=C(C#N)C1c1ccc(C(F)(F)F)cc1	inactive: 33.7%	
CCOC(=O)SC1=N/C(=C\c2ccc(N(C)C)cc2)C(=O)S1	inactive: 39.6%	
Cn1c(NC(=O)c2ccccc2Br)cc(=O)n(C)c1=O		active: 2.51 µM

Structure (SMILES)	activity change, negative = inhibition	Potency
CCN1C(=O)/C(=C2/SC(C)=C(C)N2CC)SC1=S	inactive: 36.8%	
N#CC1=C(N)OC(c2ccccc2)=C(C#N)C1c1ccc2c(c1)OCO2 (stereo unspecified)	inactive: 30.3%	
N#CCCn1c(=O)c(-c2cccs2)nc2cnc(Oc3cccc(Cl)c3)nc21	inactive: 62.5%	
N#CC1=C(N)SC(N)=C(C#N)C1c1ccnc2ccccc12	inactive: 111%	
COc1cc(-c2ccc(N=Nc3ccc4c(S(=O)(=O)O)cc(S(=O)(=O)O)c(N)c4c3O)c(OC)c2)ccc1N=Nc1ccc2c(S(=O)(=O)O)cc(S(=O)(=O)O)c(N)c2c1O	inactive: -5.56% [at 34.4 µM]	
Cc1cc2nc3c(=O)[nH]c(=O)nc-3n(CC(O)C(O)C(O)CO)c2cc1C (stereo unspecified)		active: 3.98 µM and active: 12.6 µM
CC(=C1C2C=CC1C1C(=O)NC(=O)C21)c1ccccc1 (stereo unspecified)	inactive: 40.9%	
COc1ccc(Oc2ncc3nc(-c4cccs4)c(=O)n(-c4ccccc4)c3n2)cc1	inactive: 34%	
O=C(O)c1ccc(Cl)c2c1C1C=CCC1C(c1ccccn1)N2 (stereo unspecified)		active: 31.6 µM
COc1ccc(-c2nc3cnc(Nc4ccccc4)nc3n(Cc3cccs3)c2=O)cc1	inactive: 9.24%	
CC(=O)N1C(=O)C(=C2C=C(C)OC(C)=C2)c2ccccc21	inactive: 94.8%	
COc1cccc(Cn2c(=O)cnc3cnc(Nc4ccccc4)nc32)c1	inactive: 35%	
CC1=C(C(=O)Nc2ccccc2)C(c2cccs2)C(C#N)=C(SCC#N)N1 (stereo unspecified)	inactive: 32.1%	
CCNc1ncc2nc(-c3cn(C)c4ccccc34)c(=O)n(-c3ccc(OC)cc3)c2n1	inactive: 24%	
CCC(c1nnc(SCc2nc3ccccc3s2)n1Cc1ccccc1)N(C)C (stereo unspecified)	inactive: 34%	
CC(=Nc1ccc(O)cc1)c1sc2ccccc2c1O	inactive: 55.1%	
CCN(CC)c1ccc2c(c1)OC(N)=C(C#N)C2c1cccnc1 (stereo unspecified)	inactive: 71.6%	
COc1ccc(-c2nc(C(N)=O)c3[nH]c(=O)n(-c4cccc(C)c4)c3n2)c(OC)c1	inactive: 31.8%	
O=C(CSc1nc2[nH]ncc2c(=O)n1-c1ccccc1)N1CCCc2ccccc21	inactive: 109%	
CC(=O)OC1CCC2C3CCc4cc(O)ccc4C3CCC12C (stereo unspecified)	inactive: 40.9% [at 3.08 µM]	
COc1ccc(-c2nc3cnc(N(C)C)nc3n(CCC#N)c2=O)cc1	inactive: 3.63%	
CCN(CC)CCCC(C)Nc1c2ccc(Cl)cc2nc2ccc(OC)cc12 (stereo unspecified)	inactive: -9.68% [at 3.08 µM]	
Cc1ccc(C2C(C#N)=C(N)Oc3c2sc2ccccc32)o1 (stereo unspecified)	inactive: 56.5%	
O=c1cc(O)c2c(=O)n(-c3ccccc3)c3ccccc3c2o1	inactive: 30.9%	
